# Paper PMC4081100
# This is a selection; strong and weak results do not stand in their true shares. For some assays here: At the low end of the ranking the order means little. This is one part of the list. For some assays here: The exact form of the protein is not confirmed.
# Experiments:
# Test in all cases: universal protein binding microarray (PBM)
# Conditions in all cases: transcription factors of Arabidopsis thaliana; high values mean tight binding; most listed sequences are background and not binding sites; double strand, one strand shown
# [1] = molecular target: T1, GST-ANAC092(1-176) (UniProt Q9FKA0)
# T1 sequence: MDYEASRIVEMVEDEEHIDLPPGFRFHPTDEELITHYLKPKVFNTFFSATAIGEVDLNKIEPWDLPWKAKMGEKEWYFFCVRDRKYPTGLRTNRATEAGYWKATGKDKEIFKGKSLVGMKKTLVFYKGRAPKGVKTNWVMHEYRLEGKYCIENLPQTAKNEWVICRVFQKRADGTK
# [2] = molecular target: GST-NTL6(1-168) (UniProt Q9SCK6)
# [3] = molecular target: T2, GST-ANAC019 NAC domain (UniProt Q9C932)
# T2 sequence: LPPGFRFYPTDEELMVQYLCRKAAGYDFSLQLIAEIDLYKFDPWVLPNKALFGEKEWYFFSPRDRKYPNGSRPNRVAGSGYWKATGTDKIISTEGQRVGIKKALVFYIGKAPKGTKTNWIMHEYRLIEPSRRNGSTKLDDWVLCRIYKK
# [4] = molecular target: T3, GST-ANAC055(1-171) (UniProt Q9LDY8)
# T3 sequence: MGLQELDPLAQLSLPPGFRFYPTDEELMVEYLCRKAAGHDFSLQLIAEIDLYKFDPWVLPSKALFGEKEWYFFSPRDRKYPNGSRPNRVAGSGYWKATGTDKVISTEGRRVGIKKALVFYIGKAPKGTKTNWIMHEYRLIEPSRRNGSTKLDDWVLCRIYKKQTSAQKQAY
# [5] = molecular target: T4, GST-ATAF1 NAC domain (UniProt Q39013)
# T4 sequence: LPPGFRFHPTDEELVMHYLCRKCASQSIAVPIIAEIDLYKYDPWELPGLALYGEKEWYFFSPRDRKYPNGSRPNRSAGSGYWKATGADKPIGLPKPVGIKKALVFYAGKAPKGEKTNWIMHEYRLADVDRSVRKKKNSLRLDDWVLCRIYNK
# [6] = molecular target: T5, GST-ANAC092(1-285) full length (UniProt Q9FKA0)
# T5 sequence: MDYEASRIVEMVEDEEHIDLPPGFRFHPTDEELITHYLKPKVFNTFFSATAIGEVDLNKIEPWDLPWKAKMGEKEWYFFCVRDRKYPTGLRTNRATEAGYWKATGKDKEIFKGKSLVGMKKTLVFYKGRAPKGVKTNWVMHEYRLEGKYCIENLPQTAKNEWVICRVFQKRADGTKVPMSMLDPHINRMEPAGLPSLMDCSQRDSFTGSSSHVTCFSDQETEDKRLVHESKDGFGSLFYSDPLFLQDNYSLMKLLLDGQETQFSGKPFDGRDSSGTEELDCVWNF
# [7] = molecular target: T6, GST-NAP(1-166) (UniProt O49255)
# T6 sequence: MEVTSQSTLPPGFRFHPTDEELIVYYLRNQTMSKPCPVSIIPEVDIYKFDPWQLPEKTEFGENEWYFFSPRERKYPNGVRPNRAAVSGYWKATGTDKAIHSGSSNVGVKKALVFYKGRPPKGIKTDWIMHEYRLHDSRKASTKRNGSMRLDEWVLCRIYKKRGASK
# [8] = molecular target: T7, GST-NST2(1-184) (UniProt Q9M274)
# T7 sequence: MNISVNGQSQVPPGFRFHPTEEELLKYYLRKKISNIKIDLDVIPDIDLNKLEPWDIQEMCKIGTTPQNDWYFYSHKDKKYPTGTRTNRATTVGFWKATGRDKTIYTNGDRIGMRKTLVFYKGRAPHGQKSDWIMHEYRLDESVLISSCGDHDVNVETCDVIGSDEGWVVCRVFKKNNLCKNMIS
# [9] = molecular target: T8, GST-NTL8 NAC domain (UniProt Q9XIN7)
# T8 sequence: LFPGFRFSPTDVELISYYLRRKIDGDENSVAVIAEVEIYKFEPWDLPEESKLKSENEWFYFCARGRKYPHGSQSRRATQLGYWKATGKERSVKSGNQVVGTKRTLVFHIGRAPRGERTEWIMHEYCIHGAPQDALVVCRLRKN
# [10] = molecular target: T9, GST-SND1(1-203) (UniProt Q9LPI7)
# T9 sequence: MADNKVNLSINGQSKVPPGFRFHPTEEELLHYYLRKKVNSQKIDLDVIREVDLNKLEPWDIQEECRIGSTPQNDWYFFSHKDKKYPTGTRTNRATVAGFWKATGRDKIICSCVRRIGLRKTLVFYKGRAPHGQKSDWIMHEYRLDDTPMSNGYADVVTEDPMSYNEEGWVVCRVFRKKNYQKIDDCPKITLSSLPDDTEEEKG
# [11] = molecular target: T10, GST-VND3 NAC domain (UniProt Q9FH59)
# T10 sequence: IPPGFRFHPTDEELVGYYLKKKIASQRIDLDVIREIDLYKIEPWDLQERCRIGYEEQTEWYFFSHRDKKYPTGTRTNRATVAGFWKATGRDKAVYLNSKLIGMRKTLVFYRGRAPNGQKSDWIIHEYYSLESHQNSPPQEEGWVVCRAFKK
# [12] = molecular target: T11, GST-VND7 NAC domain (UniProt Q9C8W9)
# T11 sequence: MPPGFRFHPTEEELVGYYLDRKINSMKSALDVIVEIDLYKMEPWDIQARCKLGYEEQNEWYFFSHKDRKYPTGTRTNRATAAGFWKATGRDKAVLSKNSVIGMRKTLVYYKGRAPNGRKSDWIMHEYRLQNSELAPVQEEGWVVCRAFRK
# [13] = molecular target: T12, GST-VOZ2 (Arabidopsis thaliana) (UniProt Q9SLB9)
# T12 sequence: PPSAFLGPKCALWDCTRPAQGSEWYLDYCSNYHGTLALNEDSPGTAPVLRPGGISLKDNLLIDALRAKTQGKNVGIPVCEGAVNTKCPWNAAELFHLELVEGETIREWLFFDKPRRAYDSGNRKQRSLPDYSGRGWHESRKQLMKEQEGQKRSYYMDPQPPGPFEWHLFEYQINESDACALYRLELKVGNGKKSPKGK
# [14] = molecular target: GST-WRKY1(266-371) (UniProt Q9SI37)
# UniProt Q9SI37, sequence (Q9SI37 266-371, chain 1 of 2): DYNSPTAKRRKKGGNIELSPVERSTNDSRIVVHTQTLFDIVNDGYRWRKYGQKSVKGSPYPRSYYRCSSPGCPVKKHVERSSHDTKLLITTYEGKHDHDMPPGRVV
# UniProt Q9SCK6, sequence (Q9SCK6 1-168): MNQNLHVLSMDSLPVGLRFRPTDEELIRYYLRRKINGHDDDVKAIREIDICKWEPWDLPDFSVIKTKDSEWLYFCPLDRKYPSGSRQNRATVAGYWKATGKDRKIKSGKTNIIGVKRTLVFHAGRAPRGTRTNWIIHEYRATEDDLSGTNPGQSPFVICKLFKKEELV
Sequence,binding signal [1] [E-score],binding signal [2] [E-score],binding signal [3] [E-score],binding signal [4] [E-score],binding signal [5] [E-score],binding signal [6] [E-score],binding signal [7] [E-score],binding signal [8] [E-score],binding signal [9] [E-score],binding signal [10] [E-score],binding signal [11] [E-score],binding signal [12] [E-score],binding signal [13] [E-score],binding signal [14] [E-score]
GACTGACC,-0.111,-0.11,-0.123,-0.249,-0.196,-0.0429,-0.143,-0.105,-0.000955,-0.0453,-0.256,-0.177,-0.167,0.42
CGAGGTCA,0.016,-0.0218,-0.0278,-0.0808,-0.265,-0.0398,-0.00966,-0.163,–,-0.083,-0.126,-0.0968,-0.11,0.425
CGGTCAGC,-0.0591,-0.119,0.00652,-0.16,-0.128,-0.0896,-0.132,-0.0635,-0.0711,-0.152,-0.119,-0.0254,-0.00245,0.458
CAGTCAGA,-0.00222,-0.0908,0.0745,-0.133,-0.0973,0.0135,-0.0198,-0.0942,-0.0168,0.0438,-0.0943,-0.0368,-0.103,0.404
TAGGGTCA,-0.167,-0.107,-0.151,-0.226,-0.124,-0.0495,-0.158,-0.0627,-0.185,-0.0834,-0.121,-0.157,0.0907,0.42
CGTGGACC,-0.117,-0.141,-0.00836,-0.0776,-0.101,-0.0185,-0.0504,-0.153,-0.0778,-0.0437,-0.0757,-0.051,0.0159,0.444
